Reference: the supplement of paper PMC3334620
Over roughly 33,000 sequences, “E-score (-0.5 to 0.5)” has its median near -0.016; the highest 2% begin near 0.32. Some of the results follow.

Each sequence was assayed against T1, Stp1 (UniProt B3LFK1) (assay: PBM E-score (8-mer binding enrichment) (E-score (-0.5 to 0.5)); higher = stronger / more preferred TF binding; most listed sequences are background and not binding sites). Conditions: protein concentration: 200 nM; construct: GST-full length.
T1 sequence: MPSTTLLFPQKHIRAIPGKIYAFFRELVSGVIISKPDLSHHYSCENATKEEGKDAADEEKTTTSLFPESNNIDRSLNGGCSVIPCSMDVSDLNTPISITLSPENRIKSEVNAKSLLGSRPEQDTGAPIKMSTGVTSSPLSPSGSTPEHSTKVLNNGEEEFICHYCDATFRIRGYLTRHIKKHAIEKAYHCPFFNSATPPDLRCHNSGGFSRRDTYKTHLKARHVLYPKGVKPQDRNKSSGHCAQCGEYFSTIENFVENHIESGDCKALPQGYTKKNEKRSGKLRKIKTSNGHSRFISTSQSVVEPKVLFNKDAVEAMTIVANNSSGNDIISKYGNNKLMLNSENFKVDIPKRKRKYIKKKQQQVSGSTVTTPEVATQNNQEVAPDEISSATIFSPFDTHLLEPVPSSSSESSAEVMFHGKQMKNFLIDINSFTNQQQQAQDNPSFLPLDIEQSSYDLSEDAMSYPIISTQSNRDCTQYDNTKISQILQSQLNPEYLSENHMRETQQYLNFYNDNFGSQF
How it was run: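 Detection of bound protein used fluorescent anti-GST, with scans normalised by masliner. The proteins were GST-tagged yeast transcription factors applied at about 100-200 nM to universal all-10-mer Agilent arrays made double-stranded by primer extension. Each ungapped eight-base word, pooled with its reverse complement, was scored with an E-score from the Universal PBM Analysis Suite.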

Point of comparison: ATCGGGTC, “PBM E-score” value -0.0516. Against it:
- AGAAGGGC — higher, -0.0338
- ATCAGGGG — lower, -0.332
- GCGCAATA — higher, 0.0277
- GGAGGCAA — lower, -0.088
- CAGCGAAC — higher, 0.0269
- AGGTCGAG — lower, -0.125
- GTGTCCCA — lower, -0.095
- CACCACAA — higher, 0.113
- CCGCTAGG — higher, 0.0475
- GTATGCTA — higher, -0.00287
- ACGTCGCA — lower, -0.101
- ACTGGGCA — lower, -0.0918
- CGGGCACG — higher, 0.139
- AACCTTCT — lower, -0.263
- GTAATATA — higher, 0.274
- CCATCAGG — lower, -0.34
- ATATAAGG — higher, 0.182
- TATCACGA — higher, 0.0205
- GTAAGAAC — higher, 0.0975
- CTCGTAAC — higher, 0.0966
- AATTTCAA — lower, -0.0992
- ACAAACCT — lower, -0.103
- CCCTTGCC — lower, -0.105
- CGTCTTTA — higher, 0.112
- GCGACACC — lower, -0.0715
- GATTTTGC — higher, 0.0476
- CCACCGGC — higher, -0.0392
- ACCCCTTC — lower, -0.267
- CATCGCCG — higher, 0.375
- CAGCACTC — higher, -0.019
- CCGGGAAC — higher, -0.0364
- ATTCTTAA — higher, -0.0515
- GCTATCCA — higher, -0.0017
- GCGGCAAC — higher, 0.384
- ACATGCGA — higher, 0.0193
- ACTGATCT — higher, 0.0738
- GAGGACAC — higher, -0.0359
- ACCTCCAC — lower, -0.239
- ATGTGGTA — higher, 0.0598
- CGTTAGAG — lower, -0.063
- GCGAGAGA — lower, -0.147
- GCCATACC — higher, -0.0417
- CGGACTAG — lower, -0.111
- CCCTTTTA — lower, -0.298
- GAGTTATA — higher, 0.0546
- AGGATAGG — lower, -0.0758
- GGCGAGGA — lower, -0.165
- TCGTCAGA — lower, -0.0604
- GGTAATCA — higher, 0.0354
- TAAAAGGA — higher, 0.00436
- CTTGCGTC — lower, -0.128
- CCGACTCC — lower, -0.206
- ACAATTGG — lower, -0.0534
- GAGCTTGC — lower, -0.189
- AACATTTC — higher, -0.046
- AGAGAGAC — lower, -0.302
- GCGAATTA — higher, 0.229
- GACGTGGA — lower, -0.127
- AAGTAGCC — higher, -0.0248
- ATCCGGCG — higher, 0.0798
- ATACGGAT — higher, 0.262
- ACAGCGCA — lower, -0.141
- CCTCCTTC — lower, -0.168
- AAAGAAGC — higher, -0.0111
- CCAAGCGC — higher, -0.0355
- ATGTGAAT — higher, -0.0139
- AAATCCAT — higher, 0.119
- AGCTACAG — lower, -0.325
- AGTTTACA — higher, 0.0264
- ATTAGCAC — lower, -0.11
- GGACTGCC — higher, 0.0385
- TCGCGGAA — lower, -0.0668
- GAATCTGC — lower, -0.0926
- GGACTATA — higher, -0.00864
- CGAATTGC — higher, 0.00225
- AGGTACCG — higher, 0.104
- GAGCCGCA — higher, 0.448
- CTACCCCC — lower, -0.451
- CCGACCGA — higher, 0.0122
- CAAGGAGG — lower, -0.108
- CTGTCTTA — higher, 0.0291
- AGACACGG — higher, 0.363
- ATGCCCCA — lower, -0.0992
- CGACTAGC — lower, -0.13
- TCGGGAGA — lower, -0.257
- AGAATCCG — higher, 0.132
- AATCTTCT — higher, 0.0359
- AACATCTG — higher, 0.058
- CTGTGACA — lower, -0.12
- ATAGACGC — higher, 0.15
- ATCAGGAA — higher, 0.202
- CCGCTGCA — higher, 0.0284
- AACAGAGC — higher, 0.00906
- CTGCGAAG — lower, -0.175
- GGCACCCC — higher, 0.178
- AGCCGAGA — lower, -0.143
- CGCGCAAG — higher, 0.16
- TCCTCAGA — lower, -0.178
- CGAGCCAC — lower, -0.101
- CTAAGTTA — higher, 0.11
- AAGATCAT — lower, -0.069
- CCTCTGAC — higher, -0.0386
- CAACAACC — lower, -0.171
- ACGGTGTG — lower, -0.0551
- ACCCACAT — lower, -0.137
- CCGAATAA — higher, 0.163
- CCACAAAG — higher, 0.169
- GTACGCTA — higher, -0.00166
- ACAGAAGA — higher, 0.125
- ACATTTTG — higher, 0.131
- GACTAGCC — lower, -0.194
- TTAGTAAA — higher, 0.257
- ACCGCGAG — lower, -0.0635
- CGGCCCAA — higher, 0.247
- CGGAACCA — higher, 0.0682
- ATTGATGA — higher, 0.0332
- ACGATGGA — higher, 0.0174
- AGGGGATG — lower, -0.228
- AAGTAGGC — lower, -0.0994
- AGATGCCG — higher, 0.397
- CGGATATC — higher, 0.0645
- ATAGTCGA — higher, 0.00569
- ACACTAGA — higher, 0.0321
- AGCATAGG — lower, -0.253
- CATCTTAC — higher, -0.0405
- ACAACTAT — higher, 0.0651
- CCCATGCA — lower, -0.116
- TCTATAAA — higher, 0.00205
- AAGCTAGG — lower, -0.167
- CCCCAGTC — lower, -0.324
- CAGCAATA — higher, 0.182
- GCTATAGC — lower, -0.278
- CCAATATA — lower, -0.179
- CATTCCGG — lower, -0.147
- CAGGCCCC — lower, -0.357
- GCCATTAC — higher, 0.0149
- ATCAAGAT — higher, 0.0599
- GGCCGATA — higher, 0.0187
- AGGGCTTC — higher, 0.0634
- TACTTTAA — higher, 0.175
- ACAAGGGG — lower, -0.344
- ACCTATCG — higher, 0.0549
- TTCACGAA — lower, -0.0541
- ATGGCTTA — lower, -0.0579
- CGTCTTGC — higher, -0.0431
- GATTTAAA — higher, 0.0612
- ACCACCAT — higher, -0.0512
- AATAAGCT — higher, 0.166
- GCTTGTTA — higher, -0.00813
- GCCCTTTA — higher, 0.104
- CGAGCGCA — higher, 0.027
- CAACTACC — lower, -0.149
- ACTTAAAC — higher, -0.023
- TAGACGCA — lower, -0.156
- ATGCCCGC — higher, -0.0196
- CACATGAG — lower, -0.165
- CGCACCCG — higher, 0.0358
- TCGACGAA — lower, -0.0569
- TCCGGAAA — lower, -0.078
- GTTAGGAA — higher, -0.0205
- GCCAGCAC — lower, -0.184
- GCGCAAAC — higher, 0.0893
- GCTGCAAC — higher, -0.0261
- ATGTGTTC — higher, 0.0508
- AGGGCAAA — higher, 0.0608
- CATACGGA — higher, 0.268
- CATGAAAG — higher, 0.0343
- CCGGGCGC — lower, -0.223
- AGCGAGGA — lower, -0.162
- AGTGTAAT — higher, -0.0454
- AAACGGCG — higher, 0.481
- CACTAAAC — higher, 0.137
- GGTGGGGA — lower, -0.0651
- AAACTGTA — higher, 0.0673
- ACAATTTG — higher, -0.00284
- AGCGTCGC — lower, -0.0935
- ATGACACG — higher, 0.0757
- AAACCGAG — higher, -0.0477
- AAGCAGGG — lower, -0.156
- AGGACGGA — lower, -0.161
- GCATAATA — higher, 0.243
- CCGGGCGA — lower, -0.196
- ACTACAGC — lower, -0.14
- CTGTCCAC — lower, -0.101
- CCACGAGG — higher, 0.0778
- AAATATAA — higher, 0.241
- CATGCCCC — lower, -0.0965
- TGTTGGAA — higher, 0.216
- AGACTTGA — lower, -0.176
- GCATGCGC — higher, 0.0948
- AGTACAAT — higher, 0.241
- AACACGCA — higher, 0.0508
- CGTCTCCC — higher, 0.00795
- AGCGGGTA — higher, 0.0396
- CGTCTTAC — lower, -0.0611
- CCCTTACG — lower, -0.124
- CCGAAATC — higher, -0.0492
- CATATCTA — higher, 0.137
- TGTGCAAA — lower, -0.111
- GGCTCAAC — higher, 0.0514
- CTCGTAGC — higher, -0.0256
- ATCTGTTC — lower, -0.086
- GGATGTAA — higher, 0.102
- CACTTTAG — higher, 0.0106
- ATTGAGAC — higher, -0.0134
- GGATTCTA — lower, -0.123
- GGGCAGAA — higher, 0.0536
- ATCGCCTG — lower, -0.135
- CGGGCGAG — lower, -0.204
- GCAGAGGC — lower, -0.153
- AAATAACG — higher, 0.206
- AGACGCAA — higher, 0.0534
- GAGCGTGC — higher, 0.032
- ATCGCAGG — lower, -0.189
- ATATTTGC — higher, 0.289
- AGCAGATC — higher, -0.0187
- GTTACACA — higher, 0.151
- AGGGTTCA — higher, -0.0115
